Results as given in PubChem BioAssay AID1745845 (National Center for Advancing Translational Sciences (NCATS), 2022).
About 2,600 (0.72%) of roughly 360,000 compounds were called active. Inconclusive means that the source gave no clear call. Such entries were picked first, then a sample of the others. Calls come from the whole dose curve; as a rule, active = well fitted inhibition curve with a large enough effect; inconclusive = small, poorly fitted or top-dose-only effect; inactive = no such curve, though single readings can be large or run the other way. Potencies beside an inconclusive call are fits to weak or partial responses and may not hold up.

experiment: Primary qHTS for Inhibitors of ATXN expression; settings: HEK-293 ATXN2-luciferase reporter, luminescence, 24 h; activity change, negative = inhibition: at 57 µM (top of the series); note: nearly all actives have a fitted effect of over 55% in size
How it was run: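 ATXN2-luciferase reporter cells (luciferase flanked by upstream and downstream ATXN2 gene portions) were treated 24 h at 37 °C with compounds at up to 57 uM. SteadyGlo luminescence gave expression; GF-AFC fluorescence gave viability.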
% is set by controls: 0 for no effect and ±100 for the full control effect; potency is the fitted concentration of half-maximal effect; tags give direction and shape of the fitted curve.

| Structure (SMILES) | Potency | activity change, negative = inhibition |
| --- | --- | --- |
| CS(=O)c1nc(-c2ccc(Br)cc2)cc(-c2ccccc2)c1C#N (stereo not drawn) | active: 12.6 µM | – |
| Cc1sc2ncnc(NCC3COc4ccccc4O3)c2c1C (stereo not drawn) | inconclusive: 10 µM [inhibitor, partial curve, poor fit] | – |
| Cc1ccc(F)cc1-c1cc2nc(NCCCN(C)C)n(C)c(=O)c2s1 | active: 31.6 µM | – |
| O=C(Nc1nc(-c2cccs2)cs1)c1ccc(S(=O)(=O)N2CCCC2)cc1 | inconclusive: 25.1 µM [inhibitor, partial curve, poor fit] | – |
| O=C(c1ccc(S(=O)(=O)Nc2ccc(F)cc2)cc1)N1CCN(c2ccccn2)CC1 | inconclusive: 26.7 µM [inhibitor, partial curve, poor fit] | – |
| S=C(NCc1ccco1)Nc1ccc(Cl)c(Cl)c1 | inconclusive: 39.8 µM [inhibitor, single point] | – |
| CCOC(=O)N1CC=C2C(C#N)=C(N)C(C#N)(C#N)[C@H](c3ccc(OC(C)C)c(OCC)c3)[C@H]2C1 | – | inactive: -12% |
| CC1(C(=O)Nc2cccc3cccnc23)CCN1Cc1ccc(-c2ccccc2)o1 (stereo not drawn) | inconclusive: 2.82 µM [inhibitor, full curve] | – |
| COc1ccc(S(=O)(=O)Cc2ccc(C(=O)N3CCN(c4ccc(Cl)cc4)CC3)o2)cc1 | inconclusive: 31.6 µM [inhibitor, single point] | – |
| COc1ccc2cc(CN(CCO)C(=O)c3ccc(Br)cc3)c(=O)[nH]c2c1 | – | inactive: -3.24% |
| O=C(CSc1nnc(CNC(=O)c2ccccc2)o1)c1ccc(Cl)cc1 | – | inactive: -14.2% |
| N#Cc1c(-c2ccccc2)nc(SCC(=O)Nc2nnc(C(F)(F)F)s2)[nH]c1=O | – | inactive: 16.5% |
| CCC(c1ccccc1)C(CC)c1cc(O)c(O)c(O)c1 (stereo not drawn) | inconclusive: 35.5 µM [inhibitor, single point] | – |
| CCOc1cc(C(c2c(C)[nH]n(-c3ccccc3)c2=O)c2c(C)[nH]n(-c3ccccc3)c2=O)ccc1O | inconclusive: 39.8 µM [inhibitor, single point] | – |
| O=C(NN=Cc1ccccc1O)c1cccc([N+](=O)[O-])c1 | inconclusive: 3.16 µM [inhibitor, full curve, poor fit] | – |
| COc1ccc(-c2noc(-c3ccccc3C(=O)N3CCOCC3)n2)cc1 | – | inactive: -4.4% |
| CC[C@@H](C)[C@@H]1CN([C@@H](C)CN2CCC[C@H]2CN2C(N)=NC[C@@H]2Cc2ccccc2)C(=N)N1CCc1ccc(Cl)c(Cl)c1 | – | inactive: -3.72% |
| CCN(CC)c1ccc(NC(=O)c2c(C)nn(-c3ccc(F)cc3)c2-n2cccc2)c(C)c1 | inconclusive: 12.6 µM [inhibitor, partial curve, poor fit] | – |
